This is one part of the list. At the low end of the ranking the order means little.

This note sets out measurements from publication PMC5836133.

The assay concerns T1, GST-NbGlk1(82-244).
T1 sequence: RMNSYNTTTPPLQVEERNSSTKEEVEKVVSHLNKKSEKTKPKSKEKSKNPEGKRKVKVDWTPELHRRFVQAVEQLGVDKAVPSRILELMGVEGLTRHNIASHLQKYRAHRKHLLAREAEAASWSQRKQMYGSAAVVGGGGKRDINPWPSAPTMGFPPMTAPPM
Kind of assay: protein-binding microarray.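 Further: rank-based score ranging −0.5 to +0.5 with E above 0.45 taken as significant binding.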 The note with it: NbGlk1 is a Golden2-like transcription factor of Nicotiana benthamiana; high values mean tight binding; most listed sequences are background and not binding sites; double strand, one strand shown.
As to ACGGCGCA, the binding signal is -0.0754 E-score.

The sequence ATCGACTA gave a binding signal of 0.0618 E-score. As for ATCGGCGC, the binding signal was found to be 0.071 E-score. Sequence ATAAGTCA gave a binding signal of -0.0921 E-score. As for AACGGTTA, the figure is -0.145 E-score. To AGATGGCG belongs -0.00935 E-score; to AGCGCATG, -0.211 E-score; to AGCCAGCG, -0.13 E-score. As for AACAGAGC, the figure is -0.134 E-score; as for AAAGTCAC, -0.221 E-score.

Regarding ATCTGCGG, the binding signal amounted to 0.198 E-score.

Regarding ACTATCAC, the binding signal came out at 0.0553 E-score.

In turn, AGGTGCTA gave a binding signal of -0.157 E-score. To ATGGCATA belongs -0.0625 E-score; to CACGCGGC, -0.104 E-score.

AAATACTA had a binding signal of 0.149 E-score. To AAGAGTGC belongs -0.0963 E-score. To ACAGCAGA belongs 0.0678 E-score. To AAAAACGG belongs -0.0992 E-score; to ATCTGCAA, 0.317 E-score; to ATGGGAAC, -0.131 E-score. Take ATATCACA: the binding signal is 0.369 E-score. To ACAGGTCT belongs -0.142 E-score; to AGTTTGAG, 0.0313 E-score. As for AAAAACGA, the figure is 0.0419 E-score; as for AAATCGGA, 0.303 E-score; as for ATGTTCCA, 0.0397 E-score.

The sequence AGTTCACA came in with a binding signal of 0.0163 E-score. As for AACAATCC, the figure is 0.244 E-score; as for AGTTTGCG, -0.143 E-score; as for CAGAAGAC, -0.0624 E-score. As for AAGGGCTC, the figure is -0.265 E-score; as for ACCAACAA, 0.069 E-score; as for AGCTAAAG, -0.139 E-score. Sequence ACAGTTGC had a binding signal of -0.16 E-score. To AACCTTCC belongs -0.128 E-score; to AATCTTCC, 0.361 E-score; to AGTGGCTA, -0.17 E-score.

In turn, CAAGCGGC returned a binding signal of -0.27 E-score. To AATCACAT belongs 0.265 E-score. Sequence CAAAGCCG came in with a binding signal of -0.0393 E-score. ATTAATTA: the binding signal was determined as 0.0969 E-score. Regarding AAAGGGAG, the binding signal is -0.153 E-score. As for CACCTAGC, the figure is -0.277 E-score; as for AAAATTAC, 0.203 E-score. As for ATCCCTCG, the figure is 0.139 E-score; as for AAGTTTCC, -0.0482 E-score. To ATATCAGG belongs 0.305 E-score. AAGGATCA gave a binding signal of 0.0429 E-score. As for AGGTACTC, the figure is -0.202 E-score. As for ACGTCGAT, the figure is 0.11 E-score; as for AGTGTAGA, 0.0376 E-score; as for AATGACCT, -0.239 E-score. As for ACGCTAAC, the figure is -0.116 E-score; as for CAAAAGTA, -0.0253 E-score. On to AATGCTTC, for which the binding signal is -0.0248 E-score. To ACTCACAA belongs -0.0736 E-score; to ACACGCGC, -0.193 E-score.

AAACCTAG: the binding signal was 0.0452 E-score.

For AACAGAGG, the binding signal was -0.232 E-score. With ATCTACGG, the binding signal stood at 0.195 E-score.

In turn, ATCCGGCA returned a binding signal of 0.253 E-score. To ACTTACTA belongs 0.0743 E-score. For the sequence AACTATGG, the binding signal was -0.0971 E-score. For ACCCTACC, the binding signal is -0.133 E-score. The sequence AATGATTA registered a binding signal of 0.123 E-score. To AGCTGGGA belongs -0.0779 E-score. As for CAGACCTC, the figure is -0.138 E-score; as for AGGTGACG, -0.0523 E-score; as for ACCACTTG, -0.0825 E-score. To AGTCCCCG belongs -0.329 E-score. On to AGGATAAC, for which the binding signal is 0.0961 E-score. AACGCCCA: the binding signal was -0.122 E-score. As for AATCCATC, the figure is 0.367 E-score; as for AAGCACAA, -0.0466 E-score. Sequence AACCTGCC yielded a binding signal of -0.21 E-score. As for AGGCAATA, the figure is 0.0249 E-score; as for ATGGCCGA, -0.187 E-score; as for ACCCTAAC, -0.101 E-score. To AAATCGTG belongs 0.365 E-score. As for ACAAGATA, the figure is 0.322 E-score; as for AAAAGATC, 0.301 E-score; as for ATTACGTC, 0.277 E-score.

In turn, ATGACCCA came in with a binding signal of -0.165 E-score. Take ACCAAACA: the binding signal is -0.0748 E-score. To AGCACTCG belongs -0.151 E-score; to AGGCGACC, -0.239 E-score. To ATATGCCG belongs 0.152 E-score. To AGGTGCAC belongs -0.196 E-score.

For AAACTACG, the binding signal turned out to be 0.0766 E-score. As for ACGCTGAT, the figure is 0.235 E-score; as for AAAACCCG, 0.0568 E-score; as for CACCAATC, 0.0579 E-score. As for AGCTGCAT, the figure is -0.213 E-score; as for AGTACCAC, -0.153 E-score. As for ATAAGCGA, the figure is 0.0772 E-score; as for AAAGCTCA, -0.115 E-score; as for AGTACATA, 0.0676 E-score. ACGGGACC displayed a binding signal of -0.264 E-score. To AGCCTCAC belongs -0.133 E-score; to ACTCGCTG, -0.0819 E-score; to AGGGAGAA, -0.201 E-score. Sequence AGTCGCGG returned a binding signal of -0.0793 E-score. AATAGCTG returned a binding signal of -0.131 E-score.

ACATAAGG: the binding signal is -0.105 E-score. As for AAAATGCG, the binding signal is 0.0705 E-score.

ATAGAGCC returned a binding signal of -0.219 E-score. As to CAACGTGG, the binding signal was -0.143 E-score. To AATTCTTA belongs 0.185 E-score.

Turning to ACGCATAA, the binding signal worked out at 0.00722 E-score. To AACGCGCT belongs -0.0927 E-score; to ACCATAGA, 0.00772 E-score; to ACGATCAT, 0.116 E-score. Regarding AATACCTG, the binding signal is 0.0297 E-score. Turning to ATGGACTA, the binding signal is -0.0804 E-score.

AAGAATAA came in with a binding signal of 0.165 E-score. The sequence ACACGCCG showed a binding signal of -0.13 E-score. The sequence AGCATTAT registered a binding signal of 0.0451 E-score. As for AGCTTAAT, the figure is -0.0746 E-score; as for CACGTGTA, 0.0674 E-score. ATGATTCG registered a binding signal of 0.199 E-score. To AGTTAGTA belongs 0.157 E-score.

For AGTAAGGC, the binding signal is -0.186 E-score. As for AATACATT, the figure is 0.142 E-score; as for ACGTGTTC, -0.174 E-score. To ACAGGGTC belongs -0.265 E-score; to AGCAAACC, -0.0864 E-score. As for ACTACTTG, the figure is -0.0281 E-score; as for AGTTTTTC, 0.0674 E-score. ATTGAGAC: the binding signal was -0.00411 E-score.

In turn, ACTTATAT came in with a binding signal of 0.0791 E-score. As for ATCGCCAT, the figure is 0.0934 E-score; as for AATCTACA, 0.401 E-score; as for AACTACTC, 0.0626 E-score.

The sequence ATAGCACC had a binding signal of -0.138 E-score.

In turn, AACAACGT displayed a binding signal of 0.0457 E-score. To ATAGGGGG belongs -0.229 E-score; to ATCGGTAC, 0.0488 E-score.

ACCCATCT: the binding signal was -0.0776 E-score. To ACGCTAGA belongs 0.0372 E-score; to ACCGCCAA, -0.0686 E-score; to ACCTGAAC, -0.2 E-score. To CAGATTGC belongs 0.475 E-score. To ACCTTCAC belongs -0.0968 E-score; to ATATATTC, 0.281 E-score; to ATGGATTC, 0.425 E-score. In turn, AGGCCGAA yielded a binding signal of -0.155 E-score.

For the sequence ATTGTGCA, the binding signal amounted to 0.189 E-score. Turning to ATCATTAA, the binding signal was found to be 0.138 E-score. To ACGTATTG belongs 0.179 E-score; to ACGGCGGA, -0.0789 E-score. To ATTATCGC belongs 0.111 E-score; to ATAACCGG, -0.223 E-score. As for ATAATTCG, the figure is -0.0509 E-score. In the case of ATAGAGGC, the binding signal is -0.118 E-score. To ATGGTACC belongs -0.0488 E-score; to ACCAGATA, 0.268 E-score. Turning to AGAGGCGG, the binding signal is -0.186 E-score.

The sequence AGATCTCG registered a binding signal of 0.431 E-score. As for AGTGGTTA, the figure is -0.0373 E-score; as for ATTGTACA, 0.0744 E-score; as for AACCAGTT, -0.177 E-score. To ACTCGTAC belongs -0.158 E-score; to AATAACTC, 0.0143 E-score; to ATCACGAA, 0.216 E-score. As for ATTAAAAT, the figure is 0.146 E-score. In turn, AGTCTCAG gave a binding signal of -0.214 E-score. As for ATCCGTTC, the figure is 0.161 E-score. As for ATACCACC, the figure is 0.0912 E-score. To ACCCGGCA belongs -0.238 E-score. Regarding ACGAAAAT, the binding signal is 0.272 E-score. As for ACAAGAGG, the figure is -0.132 E-score.
